Test results from the supplement of paper PMC8728848.
The other results are listed elsewhere or left out.

Experiments:
Assay in all cases: glycan array binding signal (z-score within array); higher = stronger binding
Settings in all cases: glycan notation: IUPAC condensed, linker removed
[1] = molecular target: GlcNAc(b1-3)Gal(b1-4)GlcNAc(b1-6)[GlcNAc(b1-3)Gal(b1-3)]GalNAc
Method in brief: (§1)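 Glycan array binding is given as a within-array Z-score, which can be read as non-binding when negative. The arrays, 3228 of them, came from the Consortium for Functional Glycomics database and were retained only where the protein sequence was available. Z-scores were averaged across arrays of the same protein sequence at different concentrations or buffers and across linkers.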

[2] = molecular target: GlcNAc(b1-3)Gal(b1-4)GlcNAc(b1-6)[GlcNAc(b1-3)]Gal(b1-4)GlcNAc
Method in brief: as §1

GlcNAc(b1-3)GalNAc = molecular target: GlcNAc(b1-3)GalNAc
Method in brief: as §1

GlcNAc(b1-3)Man = molecular target: GlcNAc(b1-3)Man
Method in brief: as §1

[3] = molecular target: GlcNAc(b1-3)[GlcNAc(b1-4)][GlcNAc(b1-6)]GlcNAc
Method in brief: as §1

[4] = molecular target: GlcNAc(b1-3)[GlcNAc(b1-6)]Gal(b1-4)GlcNAc
Method in brief: as §1

[5] = molecular target: GlcNAc(b1-3)[GlcNAc(b1-6)]GalNAc
Method in brief: as §1

[6] = molecular target: GlcNAc(b1-4)Gal(b1-4)GlcNAc
Method in brief: as §1

GlcNAc(b1-4)GlcNAc = molecular target: GlcNAc(b1-4)GlcNAc
Method in brief: as §1

[7] = molecular target: GlcNAc(b1-4)GlcNAc(b1-4)GlcNAc
Method in brief: as §1

[8] = molecular target: GlcNAc(b1-4)GlcNAc(b1-4)GlcNAc(b1-4)GlcNAc(b1-4)GlcNAc
Method in brief: as §1

[9] = molecular target: GlcNAc(b1-4)GlcNAc(b1-4)GlcNAc(b1-4)GlcNAc(b1-4)GlcNAc(b1-4)GlcNAc
Method in brief: as §1

[10] = molecular target: GlcNAc(b1-4)[GlcNAc(b1-6)]GalNAc
Method in brief: as §1

[11] = molecular target: GlcNAc(b1-6)Gal(b1-4)GlcNAc
Method in brief: as §1

GlcNAc(b1-6)GalNAc = molecular target: GlcNAc(b1-6)GalNAc
Method in brief: as §1

GlcNAc3Prop(b1-4)GlcNAc = molecular target: GlcNAc3Prop(b1-4)GlcNAc
Method in brief: as §1

[12] = molecular target: GlcNAc6S(b1-3)Gal(b1-4)GlcNAc
Method in brief: as §1

Kdn(a2-3)Gal(b1-3)GalNAc = molecular target: Kdn(a2-3)Gal(b1-3)GalNAc
Method in brief: as §1

Kdn(a2-3)Gal(b1-3)GlcNAc = molecular target: Kdn(a2-3)Gal(b1-3)GlcNAc
Method in brief: as §1

Kdn(a2-3)Gal(b1-4)Glc = molecular target: Kdn(a2-3)Gal(b1-4)Glc
Method in brief: as §1

Kdn(a2-3)Gal(b1-4)GlcNAc = molecular target: Kdn(a2-3)Gal(b1-4)GlcNAc
Method in brief: as §1

[13] = molecular target: Kdn(a2-3)Gal(b1-4)[Fuc(a1-3)]GlcNAc
Method in brief: as §1

Kdn(a2-6)Gal(b1-4)GlcNAc = molecular target: Kdn(a2-6)Gal(b1-4)GlcNAc
Method in brief: as §1

B1: PA-IL (Pseudomonas aeruginosa), Q05097 (protein)
chain: MAWKGEVLANNEAGQVTSIIYNPGDVITIVAAGWASYGPTQKWGPQGDREHPDQGLICHDAFCGALVMKIGNSGTIPVNTGLFRWVAPNNVQGAITLIYNDVPGTYGNNSGSFSVNIGKDQS
[1]
  glycan array binding signal (z-score): -0.234
[2]
  glycan array binding signal (z-score): -0.232
GlcNAc(b1-3)GalNAc
  glycan array binding signal (z-score): -0.226
GlcNAc(b1-3)Man
  glycan array binding signal (z-score): -0.225
[3]
  glycan array binding signal (z-score): -0.228
[4]
  glycan array binding signal (z-score): -0.235
[5]
  glycan array binding signal (z-score): -0.229
[6]
  glycan array binding signal (z-score): -0.237
GlcNAc(b1-4)GlcNAc
  glycan array binding signal (z-score): -0.232
[7]
  glycan array binding signal (z-score): -0.233
[8]
  glycan array binding signal (z-score): -0.228
[9]
  glycan array binding signal (z-score): -0.23
[10]
  glycan array binding signal (z-score): -0.232
[11]
  glycan array binding signal (z-score): -0.223
GlcNAc(b1-6)GalNAc
  glycan array binding signal (z-score): -0.227
GlcNAc3Prop(b1-4)GlcNAc
  glycan array binding signal (z-score): -0.225
[12]
  glycan array binding signal (z-score): -0.231
Kdn(a2-3)Gal(b1-3)GalNAc
  glycan array binding signal (z-score): -0.204
Kdn(a2-3)Gal(b1-3)GlcNAc
  glycan array binding signal (z-score): -0.228
Kdn(a2-3)Gal(b1-4)Glc
  glycan array binding signal (z-score): -0.216
Kdn(a2-3)Gal(b1-4)GlcNAc
  glycan array binding signal (z-score): -0.224
[13]
  glycan array binding signal (z-score): -0.217
Kdn(a2-6)Gal(b1-4)GlcNAc
  glycan array binding signal (z-score): -0.225
